We go through 42 sequences from PMC7819943, “Rice protein-binding microarrays: a tool to detect cis-acting elements near promoter regions in rice”.

The list shows a part of the results.

For this experiment, the target named is T1, OsWOX13 (Oryza sativa, UniProt Q5QMM3 1-267).
T1 sequence: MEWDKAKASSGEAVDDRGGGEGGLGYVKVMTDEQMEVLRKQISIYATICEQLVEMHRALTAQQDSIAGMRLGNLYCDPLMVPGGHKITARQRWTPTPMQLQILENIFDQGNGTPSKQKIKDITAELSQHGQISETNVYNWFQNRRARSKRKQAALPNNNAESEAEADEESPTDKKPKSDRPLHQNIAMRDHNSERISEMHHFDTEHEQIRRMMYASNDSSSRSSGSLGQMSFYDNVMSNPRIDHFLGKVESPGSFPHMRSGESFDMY
Description: protein-binding microarray (RPBM); PBS, 2% BSA, 51.3 ng/ul salmon testes DNA, 50 uM zinc acetate, 200 nM TF, 25 C, 1 h; high values mean tight binding. To be noted: protein: recombinant; tags: N-terminal polyhistidine and DsRed monomer fusion (pET32a); label: CyDye5-dUTP incorporated in the synthesized complementary strand; 3' TTTTT single-stranded linker to array surface; dsDNA, one strand shown. In a few lines: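 Binding signal here means per-feature fluorescence intensity in arbitrary units. The values were read on an Axon 4000B scanner after a custom Agilent array, double-stranded by primer extension with Cy5-dUTP, was incubated with 200 nM protein at 25 °C for 1 h in PBS with 2% BSA, salmon testes DNA and 50 µM zinc acetate, then washed. The proteins were transcription factors with an N-terminal polyhistidine tag and DsRed, expressed in E. coli BL21-CodonPlus and purified on Ni–NTA.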
With “AGCAGATTGGTTCTCATATTGGGCCACATGGGCCTCCACCCGGAGTCACCTAGTGCAG”, the binding signal is 25100 fluorescence intensity (a.u.).

Regarding “GCAAAATTTGACATGTAAGCTGCTAGGACTAGTAGTAATGCGGAGTCACCTAGTGCAG”, the binding signal is 4630 fluorescence intensity (a.u.).

Turning to “TAAATTACCCAATCTGAACTGAGATCTTTGGGTGGTATCTCGGAGTCACCTAGTGCAG”, the binding signal was 4090 fluorescence intensity (a.u.).

As for “AACCATATGCATGAGATAATTGATAAGTACACACACATTTCGGAGTCACCTAGTGCAG”, the binding signal is 9900 fluorescence intensity (a.u.).

For “GTCTGATTAGTGTAAATACCATGCGCTCCTAATCTCTTAACGGAGTCACCTAGTGCAG”, the binding signal was 4120 fluorescence intensity (a.u.).

As for “TTAGCGTCTAATTATAGGATTATTTATGATAATATTCGTCCGGAGTCACCTAGTGCAG”, the binding signal was 5680 fluorescence intensity (a.u.).

Turning to “GTTGGAAATAAAAGCTTGATTATATTGTCAAGTGAAGCATCGGAGTCACCTAGTGCAG”, the binding signal was 4940 fluorescence intensity (a.u.).

As for “TCGAAATTTCAAACCTTATTGACACGGTATTTATTGTATCCGGAGTCACCTAGTGCAG”, the binding signal was 10500 fluorescence intensity (a.u.).

As to “CCGTAATCACTATACAGTCCAAATCAACATCCTAATCTCACGGAGTCACCTAGTGCAG”, the binding signal is 6040 fluorescence intensity (a.u.).

“ATATGATTGGTATAAGTCTATTTTGGTTCCCTCGTCTATTCGGAGTCACCTAGTGCAG”: the binding signal was 47100 fluorescence intensity (a.u.).

Consider “ATATATATATATATATATCATATCCGGTATTAGGTTTGTTCGGAGTCACCTAGTGCAG”, for which the binding signal is 11000 fluorescence intensity (a.u.).

On to “TGTCGGCCTAATTGATGTACAGCTATCTATTACTAGTTCTCGGAGTCACCTAGTGCAG”, for which the binding signal was 34500 fluorescence intensity (a.u.).

As to “CTCAATTATTGTGATGGCAAGCTCCTTTCTGTAGATGGATCGGAGTCACCTAGTGCAG”, the binding signal is 6190 fluorescence intensity (a.u.).

Take “ATCCATAAATTTACTAGAAATAGACATGCATGTTGGATCACGGAGTCACCTAGTGCAG”: the binding signal is 12200 fluorescence intensity (a.u.).

“CAATAGACTAGATTAATAGTAAACCATCTCAATAGTATGTCGGAGTCACCTAGTGCAG”: the binding signal is 4460 fluorescence intensity (a.u.).

For “TCCCAGGGCCCATCAATTAGTAGTGAAACAAATCCGGTGGCGGAGTCACCTAGTGCAG”, the binding signal is 7490 fluorescence intensity (a.u.).

As for “CTTGACAGTTATTTTGACACGTCCTGGTGGTGCGTTTTAACGGAGTCACCTAGTGCAG”, the binding signal is 24300 fluorescence intensity (a.u.).

In the case of “AAAATTTTAAGAAATAAATTTAACAAATAGTTTAAAGGTACGGAGTCACCTAGTGCAG”, the binding signal was 4680 fluorescence intensity (a.u.).

With “TTAATTGCTTACATCACAGGCTCACAGCACATAACCTTGCCGGAGTCACCTAGTGCAG”, the binding signal is 31400 fluorescence intensity (a.u.).

Turning to “CGAATGAGTTGATTTATACCAGGTTTCTAAGGGACTGTTTCGGAGTCACCTAGTGCAG”, the binding signal was 8860 fluorescence intensity (a.u.).

Turning to “TCATCATATTTGACACTGATTGGAATCCTCAGGTAGCTAGCGGAGTCACCTAGTGCAG”, the binding signal was 22800 fluorescence intensity (a.u.).

Regarding “CGCGTTGTCAATTTAAAGTTGGATTCAAAATAAACATATGCGGAGTCACCTAGTGCAG”, the binding signal is 14700 fluorescence intensity (a.u.).

“TTTCTTAATGTGATGTATGACGTAAACCATCACCCTTGTTCGGAGTCACCTAGTGCAG”: the binding signal was 5050 fluorescence intensity (a.u.).

For the sequence “TTTAAGTATATTGATGGTCTAAATTAGTCTATAATGACCGCGGAGTCACCTAGTGCAG”, the binding signal is 5760 fluorescence intensity (a.u.).

“CGTGTTAATTTTGGGAGTGCTGATGATACAGGATGGTTTCCGGAGTCACCTAGTGCAG”: the binding signal was 9680 fluorescence intensity (a.u.).

In the case of “ACCAAACGCCTTGATTGAAACCATCGATATACATATGTAACGGAGTCACCTAGTGCAG”, the binding signal is 34900 fluorescence intensity (a.u.).

In the case of “ACTTTCCTAATTGCGATTCGGCGAAGTCGCGTTATAATACCGGAGTCACCTAGTGCAG”, the binding signal was 4540 fluorescence intensity (a.u.).

For the sequence “TCTGTGATTGCGGCCAAACGAGATAGATTTCCGAGATGAGCGGAGTCACCTAGTGCAG”, the binding signal was 43400 fluorescence intensity (a.u.).

As for “ACTATGCCAATTAAAATAAATCAATACAATAGGTATGATTCGGAGTCACCTAGTGCAG”, the binding signal is 9790 fluorescence intensity (a.u.).

Take “ATTGATTTGATGAAACTAATTTACGGCACAATAGCAAATCCGGAGTCACCTAGTGCAG”: the binding signal was 57600 fluorescence intensity (a.u.).

“GTGATTAGATGACCTACTGCTTATTTATTTTCATTCATACCGGAGTCACCTAGTGCAG”: the binding signal is 19700 fluorescence intensity (a.u.).

Regarding “ACTACTTAATTTAGCTTATTTTGCATACTTGGTTTCTACACGGAGTCACCTAGTGCAG”, the binding signal was 8880 fluorescence intensity (a.u.).

For “GCTAATTAAATTAATAATTCATCTTAGGAATCACAGCGTCCGGAGTCACCTAGTGCAG”, the binding signal was 39000 fluorescence intensity (a.u.).

Take “GTAGACAACATAAGATTATATAAGTTAACGTGGTTTATGACGGAGTCACCTAGTGCAG”: the binding signal was 3820 fluorescence intensity (a.u.).

With “GGTGATAGATGGGGAAGATAGGGAAGAGAGGAAGAAGAATCGGAGTCACCTAGTGCAG”, the binding signal was 12300 fluorescence intensity (a.u.).

In the case of “ATATTATTGATGATGTGGAGAAGTTAAAGGAGCATGCACACGGAGTCACCTAGTGCAG”, the binding signal is 6220 fluorescence intensity (a.u.).

For “GACAGGTGACTGATTTGCTCAATAAACAATCTGAGGAATACGGAGTCACCTAGTGCAG”, the binding signal is 20300 fluorescence intensity (a.u.).

Turning to “ACAAAATTAAATAGACAAATCCATACATGCACTAGACATGCGGAGTCACCTAGTGCAG”, the binding signal is 26500 fluorescence intensity (a.u.).

Turning to “CATAATTTCGTAAGTGAATTTGCTTCAGTTATATAAATGCCGGAGTCACCTAGTGCAG”, the binding signal was 9650 fluorescence intensity (a.u.).

Consider “CTAAAGTTTAATTGTACTCTAAACATAGGCCTAATTTAGTCGGAGTCACCTAGTGCAG”, for which the binding signal was 6650 fluorescence intensity (a.u.).

Consider “ATCCATGATTTGCTACCGTGATGCTACAGTAATCAGCCGCCGGAGTCACCTAGTGCAG”, for which the binding signal was 29000 fluorescence intensity (a.u.).

Consider “TTATGATTTATTAACTAGTAGTAGATTTGAAGTTCTTAAGCGGAGTCACCTAGTGCAG”, for which the binding signal was 16400 fluorescence intensity (a.u.).
